Test results: PubChem BioAssay AID588591 (National Center for Advancing Translational Sciences (NCATS), 2011)
About 4,700 (1.2%) of roughly 390,000 compounds were called active. Inconclusive results, whose numbers are uncertain, are shown with a selection of clear calls. The call rests on the fitted dose curve; in most records, active means well fitted inhibition curve with a large enough effect; inconclusive means small, poorly fitted or top-dose-only effect, or another doubt; inactive means no such curve, though single readings can be large or run the other way. Potencies of inconclusive entries are doubtful fits and often do not repeat.

Each compound was assayed against DNA polymerase eta (Homo sapiens) (UniProt Q9Y253) (assay: qHTS for Inhibitors of Polymerase Eta). Conditions: recombinant Pol eta, fluorescent DNA replication assay; series mostly up to 114 µM.
Method in brief: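 Pol eta (10 nM) was preincubated with compounds for 15 min at room temperature, after which fluorescent replication substrate (50 nM final) was added to start the reaction. Fluorescence was read kinetically at 0 and 10 min.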
Potency means the concentration at half of the fitted maximal effect; tags describe the fitted curve by direction and shape.

UniProt Q9Y253, sequence (Q9Y253 whole entry, looked up): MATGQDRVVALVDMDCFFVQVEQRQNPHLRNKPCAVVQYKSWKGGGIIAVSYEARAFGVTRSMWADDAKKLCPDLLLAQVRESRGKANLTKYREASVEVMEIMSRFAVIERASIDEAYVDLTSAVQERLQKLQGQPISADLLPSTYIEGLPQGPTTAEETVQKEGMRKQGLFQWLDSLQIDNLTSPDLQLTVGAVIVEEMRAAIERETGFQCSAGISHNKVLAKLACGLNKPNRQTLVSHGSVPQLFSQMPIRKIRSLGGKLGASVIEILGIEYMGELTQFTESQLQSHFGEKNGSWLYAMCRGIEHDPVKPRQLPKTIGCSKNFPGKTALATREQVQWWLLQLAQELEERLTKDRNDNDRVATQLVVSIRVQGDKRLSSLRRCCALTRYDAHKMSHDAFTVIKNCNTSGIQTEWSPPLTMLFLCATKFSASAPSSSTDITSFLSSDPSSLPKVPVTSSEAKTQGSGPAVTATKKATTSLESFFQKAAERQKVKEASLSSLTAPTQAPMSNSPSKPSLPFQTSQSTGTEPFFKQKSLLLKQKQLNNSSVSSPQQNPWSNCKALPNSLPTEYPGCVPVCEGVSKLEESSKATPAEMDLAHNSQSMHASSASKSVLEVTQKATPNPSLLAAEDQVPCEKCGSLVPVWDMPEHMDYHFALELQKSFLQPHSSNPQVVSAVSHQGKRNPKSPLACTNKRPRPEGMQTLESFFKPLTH

| Compound | Potency |
| --- | --- |
| Cc1[nH]c2ccccc2c1C(=O)CCl | inconclusive: 56.2 µM [inhibitor, partial curve] |
| COc1ccc([N+](=O)[O-])cc1NC(=O)Nc1cccc(Cl)c1 | inconclusive: 20 µM [inhibitor, single point] |
| Cc1ccc(C)c(NC(=O)c2nc(S(C)(=O)=O)ncc2N(Cc2ccc(C(C)(C)C)cc2)Cc2ccco2)c1 | inactive |
| CCOc1ccc(C(=O)c2cn(CC(=O)Nc3ccc4c(c3)OCCO4)c3ccc(OC)cc3c2=O)cc1 | inconclusive: 89.1 µM [inhibitor, single point] |
| CC(C)CCOc1ccc(/C=C2\CCn3c2nc2cc(C(=O)O)ccc2c3=O)cc1 | inconclusive: 20 µM [inhibitor, partial curve] |
| Nc1ccc2nc(-c3cc(Cl)c(N)c(Cl)c3)[nH]c2c1 | inconclusive: 31.6 µM [inhibitor, full curve] |
| Cn1c(N)c(C(=O)COC(=O)Cc2ccc(Cl)cc2)c(=O)n(C)c1=O | inconclusive: 100 µM [inhibitor, partial curve, poor fit] |
| O=C1c2ccccc2S(=O)(=O)c2cc(C(=O)N3CCN(c4ncccn4)CC3)ccc21 | inactive |
| O=C(COC(=O)/C=C/c1ccco1)NC1CCCCC1 | inactive |
| CCOc1ccccc1NC(=O)N1CCC(NC(=O)C2CCCCC2)CC1 | inconclusive: 3.55 µM [inhibitor, partial curve, poor fit] |
| CCCCOC(=O)/C(=C/C=C/c1ccccc1)NC(=O)c1ccccc1 | inconclusive: 70.8 µM [inhibitor, partial curve, poor fit] |
| CCOC(=O)c1c(S(=O)(=O)NCC(=O)Nc2cc(C)ccc2OC)c(C)n(C)c1C | inconclusive: 100 µM [inhibitor, single point] |
| Cc1ccc(C(=O)OCc2cc(=O)n3nc(-c4cccs4)sc3n2)cc1 | active: 89.1 µM |
| N#Cc1c(NC(=O)Cn2c(=O)oc3ccccc32)oc(-c2ccccc2)c1-c1ccccc1 | inconclusive: 31.6 µM [inhibitor, single point] |
| CCOc1ccc(-c2nnn(CC(=O)NCc3ccco3)n2)cc1OCC | inconclusive: 25.1 µM [inhibitor, partial curve, poor fit] |
| CC(C)(C)C(=O)O/N=C1/C(=O)N(c2ccccc2)c2ccccc21 | inconclusive: 14.1 µM [inhibitor, partial curve] |
| CC(Cl)C(=O)NN=C(c1ccccc1)c1ccccc1 (configuration not stated) | inconclusive: 100 µM [inhibitor, partial curve, poor fit] |
| CCOC(=O)c1c2c(n(Cc3ccccc3)c1C)C(=O)C(=O)c1ccccc1-2 | active: 8.91 µM |
| Nn1cnnc1N/N=C/c1cc([N+](=O)[O-])c(Cl)cc1Cl | inconclusive: 39.8 µM [inhibitor, partial curve, poor fit] |
| COc1ccc(OC)c(N/C(C)=C/C(=O)c2ccccc2)c1 | inactive |
| Cn1c(SCC(=O)c2ccc3c(c2)Cc2ccccc2-3)nnc1-c1cccc(N)c1 | inconclusive: 28.2 µM [inhibitor, partial curve, poor fit] |
| Cc1onc(-c2c(F)cccc2Cl)c1C(=O)NCc1ccc(F)cc1 | inconclusive: 39.8 µM [inhibitor, single point] |
| CCN(c1cc(C)cc(C)c1)S(=O)(=O)c1nnc(NC(=O)c2cccc(F)c2)s1 | inconclusive: 56.2 µM [inhibitor, full curve, poor fit] |

| Compound | Potency |
| --- | --- |
| O=C(CSc1ccc(Cl)cc1)Nc1ccc(-c2nc3ccccc3[nH]2)cc1 | inconclusive: 14.1 µM [inhibitor, partial curve, poor fit] |
| Cc1ccc(C2=CC(C)(c3ccc(C)cc3)Nc3nc(C(F)(F)F)nn32)cc1 (configuration not stated) | inconclusive: 79.4 µM [inhibitor, partial curve, poor fit] |
| CCN(c1ccc(C)cc1)S(=O)(=O)c1nnc(NC(=O)c2cccs2)s1 | inconclusive: 100 µM [inhibitor, partial curve, poor fit] |
| COc1ccc(NC(=O)c2cc3cccc(OC)c3oc2=Nc2ccc(C(=O)O)cc2)cc1OC | active: 14.1 µM |
| O=C(CSc1ccc2nnc(-c3cccs3)n2n1)N1CCCC1 | inactive |
| Cc1ccc(-c2nc3cccnc3o2)cc1NC(=O)COc1ccc(Cl)cc1C | inconclusive: 89.1 µM [inhibitor, single point] |
| Cc1cccc(CN2CCc3c(OCC(=O)NCc4ccco4)cccc3C2=O)c1 | inconclusive: 20 µM [inhibitor, partial curve, poor fit] |
| Cn1ccnc1SCC(=O)Nc1ccc2c(c1)COC2=O | inconclusive: 31.6 µM [inhibitor, single point] |
| CCOC(=O)C1=C(C)N(CCCC(=O)O)C(=O)NC1c1ccc(Cl)cc1 (configuration not stated) | inactive |
| COc1cccc(/C=C2\SC(=S)N(C(C(=O)O)c3ccccc3)C2=O)c1OC (configuration not stated) | inactive |
| COc1ccc(N2CCN(C(=O)CN(C)S(=O)(=O)c3ccc4c(c3)c(=O)n(C)c(=O)n4C)CC2)cc1 | inconclusive: 89.1 µM [inhibitor, single point] |
| O=C(Nc1nc(-c2ccc(Br)cc2)ns1)c1ccccc1F | inactive |
| O=S(=O)(Nc1cccc(-c2ccc(N3CCOCC3)nn2)c1)c1ccc(F)cc1F | inactive |
| O=C(NN=Cc1ccc(N2CCOCC2)cc1)c1cc2ccccc2cc1O | inconclusive: 89.1 µM [inhibitor, single point] |
| COC(=O)C1=C(C)OC(N)=C(C#N)C1C1CCCCC1 (configuration not stated) | inactive |
| O=c1cc(-c2c(O)c3ccccc3n(Cc3ccccc3)c2=O)[nH][nH]1 | inconclusive: 100 µM [inhibitor, partial curve, poor fit] |
| Nc1nonc1C(=O)NCCN=Cc1cc(Cc2ccccc2)cc(Br)c1O | inconclusive: 12.6 µM [inhibitor, partial curve, poor fit] |
| S=C(N/N=C/c1ccco1)NC1CC2CCC1C2 (configuration not stated) | inconclusive: 79.4 µM [inhibitor, partial curve, poor fit] |
| COc1ccccc1C(=O)OCc1cc(=O)n2nc(-c3cccs3)sc2n1 | inconclusive: 89.1 µM [inhibitor, single point] |
| COC(=O)c1sc(-c2ccccc2)cc1NC(=O)Nc1ccc(Cl)cc1 | inactive |
| CC1CCCCC1NS(=O)(=O)c1ccc(-n2cnnn2)cc1 (configuration not stated) | inconclusive: 39.8 µM [inhibitor, single point] |
| CN(C)c1ccc(-c2nc(-c3cccs3)c(-c3cccs3)[nH]2)cc1 | inactive |
| Cc1ccc2nc(-c3ccccc3)cc(C(=O)NCC(c3ccco3)N(C)C)c2c1 (configuration not stated) | inconclusive: 28.2 µM [inhibitor, partial curve] |

| Compound | Potency |
| --- | --- |
| CCOc1cc(/C=C2\C(=O)NN(c3ccccc3)C2=O)cc([N+](=O)[O-])c1O | active: 15.8 µM |
| CS(=O)(=O)c1cccc(-c2nnc(NC(=O)c3ccc4c(c3)OCCO4)o2)c1 | inactive |
| O=C(Nc1ccc(/C=C/c2nc3ccccc3o2)cc1)c1cccc(C(F)(F)F)c1 | inconclusive: 22.4 µM [inhibitor, partial curve] |
| O=C(Cc1ccc(S(=O)(=O)N2CCOCC2)s1)NCC1CCCCC1 | inconclusive: 31.6 µM [inhibitor, single point] |
| CCCN(CC(=O)Nc1ccccc1C)C(=O)Cc1coc2cc(C)ccc12 | inconclusive: 15.8 µM [inhibitor, full curve] |
| Cn1ccnc1C(=O)c1cc(SCC(=O)N2CCOCC2)nc2ccccc12 | inactive |
| CC1=NN(C(N)=S)C(=O)C1N=Nc1c(Br)cc(Br)cc1Br (configuration not stated) | inconclusive: 79.4 µM [inhibitor, partial curve] |
| CCSc1nnc(NC(=O)c2ccco2)s1 | inactive |
| Cc1ccc(NC(=O)CN2C(=O)S/C(=C/c3ccc(-c4cc(C(=O)O)ccc4C)o3)C2=O)cc1C | active: 20 µM |
| CCc1ccc(NC(=O)CC2C(=O)N(c3ccc(C)cc3)C(=O)N2C2CCCC2)cc1 (configuration not stated) | inactive |
| CC(C)(C)c1ccc(Oc2nc3ccccn3c(=O)c2/C=C(\C#N)c2nc3ccccc3s2)cc1 | inconclusive: 89.1 µM [inhibitor, single point] |
| Cc1c(Cl)c(C(=O)N2CCCC2)nn1C | inconclusive: 31.6 µM [inhibitor, partial curve, poor fit] |
| Cc1cc(C(=O)N/N=C/c2cc(Br)c(Br)o2)n[nH]1 | active: 17.8 µM |
| O=[N+]([O-])c1ccc(-n2nnnc2-c2ccccc2)c([N+](=O)[O-])c1 | inconclusive: 20 µM [inhibitor, single point] |
| CCCCNC(=S)NCC(c1ccccc1)c1c[nH]c2ccccc12 (configuration not stated) | inconclusive: 50.1 µM [inhibitor, partial curve, poor fit] |
| CCOC(=O)c1c(NC(=O)C(NCCN(C)C)c2ccccc2)sc2c1CCCC2 (configuration not stated) | inconclusive: 89.1 µM [inhibitor, partial curve, poor fit] |
| CCc1c(C)sc(NC(=O)CC#N)c1C#N | active: 22.4 µM |
| COc1ccc2nc(NC(=O)c3cccc(OCc4c(C)noc4C)c3)sc2c1 | inconclusive: 39.8 µM [inhibitor, partial curve, poor fit] |
| CC1=NN(c2nc(-c3ccc(C)cc3)cs2)C(=O)C1N=Nc1ccccc1O (configuration not stated) | inactive |
| Cc1cc(C)c2[nH]c(O)c(N=NC3=NC(=O)CS3)c2c1 | inconclusive: 20 µM [inhibitor, full curve, poor fit] |
| CCCNS(=O)(=O)c1ccc(CCC(=O)NCc2ccco2)cc1 | inconclusive: 28.2 µM [inhibitor, single point] |
